Out of some 350,000 compounds screened, about 31,000 (8.9%) were called active. Inconclusive means that the source gave no clear call. Such entries were picked first, then a sample of the others. The call rests on the fitted dose curve; in most records, active means well fitted inhibition curve with a large enough effect; inconclusive means small, poorly fitted or top-dose-only effect; inactive means no such curve, though single readings can be large or run the other way. Potencies of inconclusive entries are doubtful fits and often do not repeat. More than one record can exist for a structure, and the calls need not agree.
Molecular target: Histone-lysine N-methyltransferase EHMT2 (Homo sapiens) (UniProt Q96KQ7)
Sequence of UniProt Q96KQ7 (Q96KQ7 whole entry, looked up): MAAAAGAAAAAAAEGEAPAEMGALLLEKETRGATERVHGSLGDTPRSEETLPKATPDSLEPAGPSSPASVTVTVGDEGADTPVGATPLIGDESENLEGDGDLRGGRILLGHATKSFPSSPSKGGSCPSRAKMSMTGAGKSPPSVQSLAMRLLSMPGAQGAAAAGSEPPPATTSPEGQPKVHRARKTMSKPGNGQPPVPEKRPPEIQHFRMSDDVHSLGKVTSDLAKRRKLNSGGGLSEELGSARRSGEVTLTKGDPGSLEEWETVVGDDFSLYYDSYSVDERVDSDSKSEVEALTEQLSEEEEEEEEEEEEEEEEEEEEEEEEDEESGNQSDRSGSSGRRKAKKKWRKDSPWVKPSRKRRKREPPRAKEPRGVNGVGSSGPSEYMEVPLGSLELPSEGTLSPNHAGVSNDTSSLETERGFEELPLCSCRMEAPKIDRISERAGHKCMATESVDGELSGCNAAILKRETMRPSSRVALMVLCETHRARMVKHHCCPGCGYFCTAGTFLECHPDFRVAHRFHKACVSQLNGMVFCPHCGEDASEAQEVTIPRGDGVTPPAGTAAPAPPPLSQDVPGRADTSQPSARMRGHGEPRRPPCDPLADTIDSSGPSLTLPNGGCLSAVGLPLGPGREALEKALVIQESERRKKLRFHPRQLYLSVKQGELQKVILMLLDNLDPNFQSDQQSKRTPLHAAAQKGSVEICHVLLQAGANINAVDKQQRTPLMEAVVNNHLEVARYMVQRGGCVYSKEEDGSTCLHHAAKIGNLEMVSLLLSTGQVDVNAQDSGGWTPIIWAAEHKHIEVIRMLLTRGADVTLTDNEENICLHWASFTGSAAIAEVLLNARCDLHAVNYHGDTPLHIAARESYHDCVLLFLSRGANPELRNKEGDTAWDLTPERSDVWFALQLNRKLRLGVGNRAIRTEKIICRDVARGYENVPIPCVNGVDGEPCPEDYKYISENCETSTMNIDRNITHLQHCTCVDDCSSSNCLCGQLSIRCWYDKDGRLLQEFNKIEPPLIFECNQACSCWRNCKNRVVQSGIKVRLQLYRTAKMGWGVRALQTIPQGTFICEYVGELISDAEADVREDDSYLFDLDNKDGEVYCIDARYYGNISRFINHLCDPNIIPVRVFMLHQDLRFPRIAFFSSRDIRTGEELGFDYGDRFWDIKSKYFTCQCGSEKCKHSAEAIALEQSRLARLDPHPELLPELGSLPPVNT
Experiment: qHTS Assay for Inhibitors of Histone Lysine Methyltransferase G9a; further: nearly all actives have a fitted effect of over 75% in size
Conditions: G9a H3K9 monomethylation, AlphaScreen, 2 h; activity, negative = inhibition: at 59 µM (top of the series) unless noted
In short: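 Step 1: enzyme (final 20 nM) with compound, 15 min RT. Step 2: substrate peptide 500 nM and SAM 20 uM, 2 h RT. Step 3: anti-H3K9me1 antibody and AlphaScreen beads, 10 min, then plate read.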
On the % scale 0 is the no-effect control and ±100 the full control effect; potency means the concentration at half of the fitted maximal effect; tags describe the fitted curve by direction and shape.

Structure (SMILES)	Potency	activity, negative = inhibition
CC(C)c1ccc(S(=O)(=O)N2CCC(C(=O)NCc3ccco3)CC2)cc1	inconclusive: 70.8 µM [inhibitor, single point]	–
O=C(CCN1C(=O)/C(=C\c2ccccc2)SC1=S)Nc1ccc(C(=O)O)cc1	inconclusive: 50.1 µM [inhibitor, partial curve]	–
CN(CC(=O)Nc1ccc(Cl)cc1)S(=O)(=O)c1ccc2c(c1)n(C)c(=O)c(=O)n2C	inactive	–
CCOc1nc(NCc2ccco2)nc(Nc2ccc(OC)cc2)n1	inconclusive: 1.12 µM [inhibitor, full curve, poor fit]	–
NCCS(=O)O	active: 18.9 µM	–
O=C(Nc1ccc(S(=O)(=O)N2CCOCC2)cc1)C1CC1	inconclusive: 100 µM [inhibitor, single point]	–
O=C(c1ccco1)N1CCN(Cc2nnc(-c3ccccc3F)o2)CC1	active: 70.8 µM	–
Cc1ccc2c(=O)c(C(=O)c3ccc(F)cc3)cn(CC(=O)Nc3ccc4c(c3)OCCO4)c2n1	inactive	–
CC(C)OCCCNCC(O)c1ccccc1 (stereo not drawn)	inconclusive: 22.4 µM [inhibitor, single point]	–
CCCCCn1c(CNC(C)=O)nc2ccccc21	inactive	–
Cc1ccc(CSc2nnc(-c3ccco3)o2)cc1	inconclusive: 10 µM [inhibitor, full curve, poor fit]	–
COc1cc2[nH]c(=S)nc(NC3CCCCCC3)c2cc1OC	inactive	–
COCCn1c(-c2ccc(OC(F)(F)C(F)C(F)(F)F)cc2)nc2c1c(=O)[nH]c(=O)n2CC(C)C (stereo not drawn)	inconclusive: 89.1 µM [inhibitor, single point]	–
Nc1ncn(-c2ncc(C(F)(F)F)cc2Cl)n1	inactive	–
Cc1cc(C)n2c(SCC(=O)Nc3ncc(C(F)(F)F)cc3Cl)nnc2n1	inconclusive: 1.58 µM [inhibitor, full curve, poor fit]	–
CCOC(=O)c1[nH]c2ccc(OCC)cc2c1NC(=O)CN1CCN(c2ccccc2)CC1	inconclusive: 22.4 µM [inhibitor, partial curve, poor fit]	–
COc1ccc(C(=O)Nc2ccc(C)cn2)cc1S(=O)(=O)N1CCCc2ccccc21	inconclusive: 89.1 µM [inhibitor, partial curve, poor fit]	–
O=C(c1ccc2c(c1)N(Cc1ccccc1)C(=O)c1ccccc1S2(=O)=O)N1CCc2ccccc21	inactive	–
COc1ccc(OC)c(-n2c3c(cc(-c4nc(-c5ccc(Cl)cc5)cs4)c2=O)C(=O)CC(C)(C)C3)c1	inactive	–
Cc1coc2cc3oc(=O)ccc3cc12	inactive	–
Cc1c(C(=O)Nc2nnc(C(F)(F)F)s2)oc2ccccc12	inconclusive: 79.4 µM [inhibitor, single point]	–
O=C(CSc1nccn1C1CCCC1)Nc1cc(C(F)(F)F)ccc1Cl	active: 12.6 µM	–
CC(CNc1ccc([N+](=O)[O-])c2cccnc12)Nc1c([N+](=O)[O-])cc(C(F)(F)F)cc1[N+](=O)[O-] (stereo not drawn)	inconclusive: 1.41 µM [inhibitor, full curve, poor fit]	–

Structure (SMILES)	Potency	activity, negative = inhibition
O=C(NC(=S)N1CCN(c2ccccn2)CC1)c1ccccc1	active: 39.8 µM	–
Cc1ccc(-c2nc(CN(C)Cc3ccc4nccnc4c3)c(C)o2)s1	inconclusive: 35.5 µM [inhibitor, partial curve, poor fit]	–
CCOc1ccccc1NC(=O)C(=O)/C=C(\O)c1cc(OC)ccc1OC	inconclusive: 89.1 µM [inhibitor, single point]	–
COc1ccc(-c2nc3ccccn3c2CN2CCN(c3ccccc3F)CC2)cc1	–	inconclusive: -75.7% [inhibitor] [at 102 µM]
O=C(OCC(=O)N1CCCCCC1)c1ccc(Cl)c(S(=O)(=O)N2CCCC2)c1	inactive	–
CCN(CC)S(=O)(=O)c1ccc(N=Cc2c(C)c(C#N)c(=O)n(C)c2O)cc1	inconclusive: 8.91 µM [inhibitor, full curve, poor fit]	–
COc1ccccc1CC(=O)NC1CCC(C)CC1 (stereo not drawn)	inactive	–
CN1CC=C2C(C#N)=C(N)C(C#N)(C#N)C(c3cccc(Cl)c3Cl)C2C1 (stereo not drawn)	inconclusive: 2.82 µM [inhibitor, partial curve, poor fit]	–
CCOc1ccc(OCC)c(NC(=O)c2cc3ccccn3n2)c1	inconclusive: 8.91 µM [inhibitor, partial curve]	–
CCOC(=O)N1CCN(C(=O)c2ccc3c(c2)sc2nc(-c4ccc(OC)cc4)cn23)CC1	inconclusive: 31.6 µM [inhibitor, full curve]	–
CC(C)NC(=S)Nc1c(N)[nH]c(=O)[nH]c1=O	active: 56.2 µM	–
COc1ccccc1NC(=O)C1=C(C)Nc2nc(-c3ccc(N(C)C)cc3)nn2C1c1ccncc1 (stereo not drawn)	inconclusive: 50.1 µM [inhibitor, partial curve, poor fit]	–
O=C(CCn1c(=O)c2ccccc2n(CC(=O)NCCC2=CCCCC2)c1=O)NCc1ccco1	inconclusive: 6.31 µM [inhibitor, single point]	–
O=C1C2CCCN2C(=O)N1CCCCN1CCN(c2ccc(F)cc2)CC1 (stereo not drawn)	inconclusive: 20 µM [inhibitor, single point]	–
Cc1c(C)n(Cc2ccc(F)cc2)c2ccc(C(=O)NCCN3CCOCC3)cc12	active: 50.1 µM	–
CSCCC(NS(=O)(=O)c1ccc(C)c(C(=O)O)c1)C(=O)O (stereo not drawn)	inconclusive: 89.1 µM [inhibitor, single point]	–
COc1ccc(S(=O)(=O)Nc2ccc(S(=O)(=O)Nc3nccs3)cc2)cc1	active: 50.1 µM	–
CCN(CC)C(=O)Cc1cc(C(=O)O)c2ccccc2n1	inactive	–
COc1cc(CN2CCC(n3nccc3NC(=O)c3ccc4c(c3)OCO4)CC2)ccc1O	inconclusive: 79.4 µM [inhibitor, single point]	–
CCOCCCNC(=O)Cc1ccc(OC)c(OC)c1	inactive	–
CSCCC(NC(=O)c1ccc(Cl)cc1)C(=O)OCC(=O)NCc1ccco1 (stereo not drawn)	inconclusive: 56.2 µM [inhibitor, partial curve]	–
COc1cc(C(c2c(C)[nH][nH]c2=O)c2c(C)[nH][nH]c2=O)ccc1OC(=O)c1cccc([N+](=O)[O-])c1	inconclusive: 2.51 µM [inhibitor, full curve]	–
COc1ccc(-c2csc(NC(=O)C3CCN(C(=O)c4ccc(F)cc4)CC3)n2)cc1OC	inconclusive: 79.4 µM [inhibitor, single point]	–

Structure (SMILES)	Potency	activity, negative = inhibition
CC(C)c1ccc(NC(=O)C(c2ccccc2)N(C)C(=O)c2cnccn2)cc1 (stereo not drawn)	inconclusive: 28.2 µM [inhibitor, single point]	–
Cc1ccc(COc2ccc3c(c2)OCO3)cc1	inconclusive: 35.5 µM [inhibitor, partial curve]	–
CCOc1ccc(CCN2CN(C3CCCCC3)CNC2=S)cc1OCC	inconclusive: 79.4 µM [inhibitor, single point]	–
COc1cccc(-c2nnn(C/C(N)=N/O)n2)c1	inconclusive: 1.26 µM [inhibitor, full curve]	–
O=C(NNC(=O)c1cccnc1SCc1cccc([N+](=O)[O-])c1)c1cccnc1	active: 35.5 µM	–
CCCOc1ccc(N2C(=O)CC(NCC#N)C2=O)cc1 (stereo not drawn)	inactive	–
CCOc1ccccc1NC(=O)Cn1c(=O)ccc2cc(S(=O)(=O)N3CCCC3)ccc21	inactive	–
CC(=O)N1CCc2nc3sc(C(=O)Nc4ccc(Cl)cc4F)c(N)c3c(C(F)(F)F)c2C1	inactive	–
Cn1c(=O)c(C(=O)NCCc2ccccc2)c(O)c2ccccc21	inconclusive: 35.5 µM [inhibitor, single point]	–
Cc1cc(O)c(C=O)c2c1C(=O)Oc1c(COC(=O)/C=C/C(=O)O)c(O)c(C(=O)O)c(C)c1O2	–	inconclusive: -63.9% [inhibitor] [at 2.33 µM]
CC1(C)CC(=O)C(C(C2=C(O)CC(C)(C)CC2=O)c2ccc(Br)s2)C(=O)C1 (stereo not drawn)	inconclusive: 20 µM [inhibitor, single point]	–
Cc1csc(NC(=O)CSc2nnc(Cn3c(=O)sc4ccccc43)n2-c2ccccc2)n1	inconclusive: 89.1 µM [inhibitor, single point]	–
COc1ccc(Cn2c(C(=O)O)c(CNCc3ccc(C)o3)c3ccc(C)cc32)cc1	inconclusive: 7.94 µM [inhibitor, partial curve, poor fit]	–
O=C(c1cc2ccc3cccnc3c2[nH]1)N1CCN(c2ccccc2)CC1	inactive	–
COc1ccc(S(=O)(=O)N2CCCCC2)cc1NC(=O)c1ccc(OC)c(OC)c1	inconclusive: 89.1 µM [inhibitor, partial curve, poor fit]	–
CCN(CC)C(=O)COC(=O)C1CCN(S(=O)(=O)c2ccc3c(c2)OCCO3)CC1	inactive	–
COc1ccc2[nH]c(=O)c(CN(Cc3cccs3)S(=O)(=O)c3cccc4nsnc34)cc2c1	inconclusive: 22.4 µM [inhibitor, single point]	–
COC(=O)c1cccc(-n2c(CCC(=O)O)ccc2-c2cccs2)c1	inconclusive: 17.8 µM [inhibitor, partial curve, poor fit]	–
O/N=C/c1cn(-c2ccccc2)nn1	inactive	–
CCc1ccccc1N1CC(c2nc3ccccc3n2CCCCOc2ccccc2)CC1=O (stereo not drawn)	inconclusive: 25.1 µM [inhibitor, single point]	–
O=C(C1=C(O)C(=O)N(CCN2CCOCC2)C1c1cccnc1)c1cc2ccccc2o1 (stereo not drawn)	active: 28.2 µM	–
C/C(=C\C(=O)c1ccc(Br)cc1)N1CCCCC1	inconclusive: 35.5 µM [inhibitor, single point]	–
